T1: human ENPP1 on the cell surface (293T-ENPP1 cells, HepG2 cells) (human, UniProt P22413 1-925)
T1 sequence: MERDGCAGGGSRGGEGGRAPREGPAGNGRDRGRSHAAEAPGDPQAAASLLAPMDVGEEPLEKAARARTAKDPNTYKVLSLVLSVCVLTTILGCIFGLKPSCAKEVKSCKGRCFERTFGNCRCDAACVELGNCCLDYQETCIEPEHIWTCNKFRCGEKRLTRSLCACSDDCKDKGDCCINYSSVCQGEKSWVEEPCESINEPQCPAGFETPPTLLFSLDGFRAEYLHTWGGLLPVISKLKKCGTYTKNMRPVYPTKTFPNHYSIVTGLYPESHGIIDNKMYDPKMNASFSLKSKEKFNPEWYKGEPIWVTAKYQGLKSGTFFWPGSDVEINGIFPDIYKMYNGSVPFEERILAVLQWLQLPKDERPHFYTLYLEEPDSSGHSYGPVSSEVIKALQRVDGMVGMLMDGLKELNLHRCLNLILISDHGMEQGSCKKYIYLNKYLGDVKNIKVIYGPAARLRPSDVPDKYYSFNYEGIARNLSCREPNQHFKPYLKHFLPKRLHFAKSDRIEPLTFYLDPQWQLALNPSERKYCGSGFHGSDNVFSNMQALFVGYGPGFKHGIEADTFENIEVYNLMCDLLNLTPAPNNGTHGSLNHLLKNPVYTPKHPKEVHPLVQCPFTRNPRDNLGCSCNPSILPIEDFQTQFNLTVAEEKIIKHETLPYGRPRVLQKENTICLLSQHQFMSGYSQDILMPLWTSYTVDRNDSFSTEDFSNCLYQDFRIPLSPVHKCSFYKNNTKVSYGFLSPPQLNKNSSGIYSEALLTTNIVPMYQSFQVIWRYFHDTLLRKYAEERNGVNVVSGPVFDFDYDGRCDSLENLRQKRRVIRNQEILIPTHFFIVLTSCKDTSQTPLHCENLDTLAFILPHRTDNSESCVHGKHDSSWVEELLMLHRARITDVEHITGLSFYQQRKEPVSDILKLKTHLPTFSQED


Biological target: T1, human ENPP1 on the cell surface …
Test: cell-based or functional assay

| Binder | IC50 of cell killing (relative cell viability) on HepG2 cells | IC50 of cell killing (relative cell viability, Cell Titer-Glo, 4 days) on 293T-ENPP1 cells |
| --- | --- | --- |
| MMAE-IgG1 17 (other, Osu-Glu-vc-PAB-MMAE conjugated; residues and chain not stated) heavy: QVQLVESGGGLVKPGGSLRLSCAASGFTFSDYYMSWIRQAPGKGLEWVSYISSSGSTIYYADSVKGRFTISRDNAKNSLYLQMNSLRAEDTAVYYCAREVYYYDSSGYYTYYFDYWGQGTLVTVSS[human IgG1 constant region not spelt out] light: DIQMTQSPSSLSASVGDRVTITCRASQSISSYLNWYQQKPGKAPKLLIYAASSLQSGVPSRFSGSGSGTDFTLTISSLQPEDAATYYCQQYDTFPLTFGGGTKVEIKRTVAAPSVFIFPPSDEQLKSGTASVVCLLNNFYPREAKVQWKVDNALQSGNSQESVTEQDSKDSTYSLSSTLTLSKADYEKHKVYACEVTHQGLSSPVTKSFNRGEC | ~33 nM | ~13 nM |
| MMAE-IgG1 3G12 (other, Osu-Glu-vc-PAB-MMAE conjugated; residues and chain not stated) heavy: QVQLVESGGGLVKPGGSLRLSCAASGFTFSDYYMSWIRQAPGKGLEWVSYISSSGSTIYYADSVKGRFTISRDNAKNSLYLQMNSLRAEDTAVYYCAREVYYYDSSGYYTYYFDYWGQGTLVTVSS[human IgG1 constant region not spelt out] light: DIQMTQSPSSLSASVGDRVTITCRASQSISSYLNWYQQKPGKAPKLLIYAASSLQSGVPSRFSGSGSGTDFTLTISSLQPEDVAVYYCQQYYTSRITFGQGTKLEIKRTVAAPSVFIFPPSDEQLKSGTASVVCLLNNFYPREAKVQWKVDNALQSGNSQESVTEQDSKDSTYSLSSTLTLSKADYEKHKVYACEVTHQGLSSPVTKSFNRGEC | ~80 nM | ~10 nM |
